{"source": "PubChem BioAssay (Tox21)", "note": "“And” between values parts separate entries of the source, which are not always exact repeats. Identical values can stand only once. This list was built around the results that the source calls inconclusive (neither active nor inactive); the mix of calls is not that of the screen. Potencies of inconclusive entries are doubtful fits and often do not repeat. The source made the active and inactive calls. The call rests on the fitted dose curve; in most records, active means well fitted curve in the direction sought with a large enough effect in the repeat runs; inconclusive means weak or mixed curves; inactive means no such curve, though single readings can be large; an effect the other way counts as inactive or inconclusive.", "data": [{"assay": "qHTS assay for identifying genotoxic compounds that show differential cytotoxicity against isogenic chicken DT40 cell lines with known DNA damage response pathways - Rev3 mutant cell line (AID 743014); further: nearly all actives have a fitted effect of over 55% in size; further: potency means the concentration at half of the fitted maximal effect; tags describe the fitted curve by direction and shape; on activity, negative = cytotoxicity: on the % scale 0 is the no-effect control and ±100 the full control effect", "conditions": "chicken DT40 Rev3-/- viability, CellTiter-Glo, 40 h; activity, negative = cytotoxicity: at 68.4 µM (top of the series) unless noted", "values": [{"molecule": "OC(c1ccc(F)cc1)(c1cncnc1)c1ccccc1Cl", "note": "(stereo not drawn)", "Potency": "active: 30.6 µM"}, {"molecule": "CC(=O)CCc1ccc2c(c1)OCO2", "activity, negative = cytotoxicity": "inactive: -5.8%"}, {"molecule": "NC(=S)Nc1ccccc1", "Potency": "inactive"}, {"molecule": "CCOP(=O)(OCC)Oc1cc(C)nc(C(C)C)n1", "activity, negative = cytotoxicity": "inactive: 6.01% [at 95 µM]"}, {"molecule": "ClC(Cl)=C(Cl)C(Cl)=C(Cl)Cl", "Potency": "inactive and inconclusive: 30.6 µM [cytotoxic, partial curve, poor fit]"}, {"molecule": "CN1C(=O)NC(=O)C(C)(C2=CCCCC2)C1=O", "note": "(stereo not drawn)", "Potency": "inactive"}, {"molecule": "II", "Potency": "inconclusive: 77 µM [cytotoxic, partial curve, poor fit]"}, {"molecule": "OCCBr", "Potency": "active: 19.4 µM"}]}, {"assay": "qHTS assay for identifying genotoxic compounds that show differential cytotoxicity against isogenic chicken DT40 cell lines with known DNA damage response pathways - Rad54/Ku70 mutant cell line (AID 743015); further: nearly all actives have a fitted effect of over 60% in size; further: potency means the concentration at half of the fitted maximal effect; tags describe the fitted curve by direction and shape; on activity change, negative = cytotoxicity: on the % scale 0 is the no-effect control and ±100 the full control effect", "conditions": "DT40 Rad54/Ku70 mutant viability, CellTiter-Glo, 40 h; activity change, negative = cytotoxicity: at 66.8 µM (top of the series) unless noted", "values": [{"molecule": "O=c1[nH]c2ccccc2o1", "activity change, negative = cytotoxicity": "inactive: 7.8%"}, {"molecule": "C#CCO", "activity change, negative = cytotoxicity": "inactive: 7.07%"}, {"molecule": "CC(C)(O)C(Cl)(Cl)Cl", "Potency": "inconclusive: 33.5 µM [cytotoxic, single point]"}, {"molecule": "II", "Potency": "inconclusive: 54.5 µM [cytotoxic, partial curve]"}, {"molecule": "OCCBr", "Potency": "inconclusive: 48.7 µM [cytotoxic, partial curve, poor fit]"}]}]}
